# Assay results: PubChem BioAssay (NCI)
#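 Grown in 96-well plates, cells were treated for 48 hours with each compound at five concentrations. Insufficient inhibition: endpoint recorded as highest concentration tested. GI50 = concentration required for 50% inhibition of growth. At the TGI there is no net growth.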
# Test system: NCI-H322M lung
# Experiment: NCI anticancer screen, dose series, 48 h
SMILES,GI50 [nM],TGI [nM]
N#Cc1c(NC(=O)c2cccc(C(F)(F)F)c2F)sc2c1CCC(=O)C2,2980,> 70400
[Cl][Ru].c1ccc(-c2cc(-c3ccccn3)nc(-c3ccccn3)c2)cc1.c1ccc(-c2ccnc3c2ccc2c(-c4ccccc4)ccnc23)cc1,429,2780
CCOC(=O)c1c(NC(=O)c2cccc(C(F)(F)F)c2)sc2c(CN3CCN(C)CC3)c(O)ccc12,1570,2980
